Results published in a collection of fitness landscapes (doi:10.1126/science.1257360).
The other results are listed elsewhere or left out.

B1: PhoQ; a variant is named by its letters at X, in order, P23837 (parent)
chain: MKKLLRLFFPLSLRVRFLLATAAVVLVLSLAYGMVALIGYSVSFDKTTFRLLRGESNLFYTLAKWENNKLHVELPENIDKQSPTMTLIYDENGQLLWAQRDVPWLMKMIQPDWLKSNGFHEIEADVNDTSLLLSGDHSIQQQLQEVREDDDDAEMTHSVAVNVYPATSRMPKLTIVVVDTIPVELKSSYMVWSWFIYVLSANLLLVIPLLWVAAWWSLRPIEALAKEVRELEEHNRELLNPATTRELTSLVRNLNRLLKSERERYDKYRTTLTDLTHSLKTPLXXLQXXLRSLRSEKMSVSDAEPVMLEQISRISQQIGYYLHRASMRGGTLLSRELHPVAPLLDNLTSALNKVYQRKGVNISLDISPEISFVGEQNDFVEVMGNVLDNACKYCLEFVEISARQTDEHLYIVVEDDGPGIPLSKREVIFDRGQRVDTLRPGQGVGLAVAREITEQYEGKIVAGESMLGGARMEVIFGRQHSAPKDE

Variants of: B1
Assay: enrichment ratio after two sorts for PhoP signalling (ratio (wild type AVST 3.29)); higher = more functional
Conditions: with PhoP (E. coli)

Variant	enrichment ratio
GRYD	≤ 0.25
WMTL	≤ 0.25
RDMW	≤ 0.25
HRGM	≤ 0.25
VSID	≤ 0.25
INAN	≤ 0.25
QMFW	≤ 0.25
KAQS	≤ 0.25
ELRC	≤ 0.25
NWKS	≤ 0.25
NHWP	≤ 0.25
NYEQ	≤ 0.25
SSEF	0.399
DTEL	≤ 0.25
ADHC	≤ 0.25
NQQG	≤ 0.25
KFEQ	≤ 0.25
MLPN	≤ 0.25
EHRS	≤ 0.25
FEWY	≤ 0.25
RHVA	≤ 0.25
SMFG	0.583
YIPS	≤ 0.25
RFLM	≤ 0.25

Variant	enrichment ratio
WYHC	≤ 0.25
VYCT	≤ 0.25
ADDN	≤ 0.25
LGAP	≤ 0.25
DDTP	≤ 0.25
KDFC	≤ 0.25
QAIP	≤ 0.25
NMAE	≤ 0.25
PLAS	≤ 0.25
KMLT	≤ 0.25
QKGR	≤ 0.25
QTAK	≤ 0.25
QCSY	≤ 0.25
ISCN	≤ 0.25
LNMA	≤ 0.25
SWTQ	≤ 0.25
NYWW	≤ 0.25
ECLF	≤ 0.25
VHYT	≤ 0.25
VEAK	≤ 0.25
KHYE	≤ 0.25
LGIC	≤ 0.25
NFIA	≤ 0.25
YKLC	≤ 0.25

Variant	enrichment ratio
RPRK	≤ 0.25
NGLF	≤ 0.25
SAFV	≤ 0.25
WPGG	0.855
YVSH	≤ 0.25
ADDS	≤ 0.25
KCLC	≤ 0.25
RYHN	≤ 0.25
NKCA	≤ 0.25
VWWL	≤ 0.25
MVAH	12.3
YALL	10.6
VPWT	≤ 0.25
LNGA	≤ 0.25
FTFS	≤ 0.25
NMRD	≤ 0.25
QVRP	≤ 0.25
KYTS	≤ 0.25
WRSI	≤ 0.25
IKHI	≤ 0.25
SMPF	≤ 0.25
DGWL	≤ 0.25
TVPG	≤ 0.25
NKVM	≤ 0.25

Variant	enrichment ratio
SDEP	≤ 0.25
AAPE	≤ 0.25
MWLP	≤ 0.25
YSIM	9.6
FTVC	≤ 0.25
DAHD	≤ 0.25
GMWH	≤ 0.25
DWNL	≤ 0.25
IKQW	≤ 0.25
NTKW	≤ 0.25
VVWE	≤ 0.25
KNTI	≤ 0.25
PMIC	≤ 0.25
LHIY	≤ 0.25
IVMD	≤ 0.25
QVGI	≤ 0.25
HKIC	≤ 0.25
PYEL	≤ 0.25
IVIA	≤ 0.25
TLQQ	10.1
PPMF	≤ 0.25
SETF	9.36
TKMP	≤ 0.25
QSHV	11.3

Variant	enrichment ratio
IWIP	≤ 0.25
VHAC	≤ 0.25
TPKL	≤ 0.25
FEVH	≤ 0.25
NSPS	≤ 0.25
YYVM	≤ 0.25
PWFK	≤ 0.25
ILRV	≤ 0.25
GRFA	≤ 0.25
WCPL	≤ 0.25
FSGD	≤ 0.25
GPSD	≤ 0.25
HHGR	≤ 0.25
NPSS	≤ 0.25
SCTW	9.5
MQMW	≤ 0.25
MNHN	≤ 0.25
AFTK	≤ 0.25
RCTW	≤ 0.25
ADAL	≤ 0.25
EGCK	≤ 0.25
QGAD	≤ 0.25
WTRL	≤ 0.25
GYPV	≤ 0.25

Variant	enrichment ratio
ADYK	≤ 0.25
HATM	≤ 0.25
TIRD	≤ 0.25
ACFW	≤ 0.25
MPNG	≤ 0.25
FEVG	2.78
EECW	≤ 0.25
EAEE	≤ 0.25
KPLQ	≤ 0.25
VHTS	≤ 0.25
AALN	8.23
SYMI	0.48
TDPT	≤ 0.25
IAIS	≤ 0.25
RVRL	≤ 0.25
QMCL	≤ 0.25
DFNV	≤ 0.25
ASAH	6.11
EKYS	≤ 0.25
PPPK	≤ 0.25
YFIF	≤ 0.25
PEEE	≤ 0.25
SYWS	≤ 0.25
TPYF	≤ 0.25

Variant	enrichment ratio
ASVF	9.65
MYAR	≤ 0.25
EIPG	≤ 0.25
ADFE	≤ 0.25
EDYF	≤ 0.25
GNIF	≤ 0.25
YQMF	≤ 0.25
WSCG	≤ 0.25
FGSM	≤ 0.25
SLML	7.15
KHTF	≤ 0.25
REQY	≤ 0.25
IMFI	≤ 0.25
VNRD	≤ 0.25
YWKI	≤ 0.25
TAAC	8.73
PGPE	≤ 0.25
DPTH	≤ 0.25
TWCG	≤ 0.25
GFQP	≤ 0.25
NWFM	≤ 0.25
NFHL	≤ 0.25
RAAQ	≤ 0.25
SMAY	25.3

Variant	enrichment ratio
RSAW	≤ 0.25
TICV	6.14
WDFY	≤ 0.25
LASS	≤ 0.25
MFER	≤ 0.25
DHVY	≤ 0.25
SHCK	≤ 0.25
RECR	≤ 0.25
KVRP	≤ 0.25
HICF	≤ 0.25
NRFF	≤ 0.25
NQPM	≤ 0.25
NLNN	≤ 0.25
TTHY	3.33
MKNH	≤ 0.25
QVCI	≤ 0.25
VLRF	≤ 0.25
KEAD	≤ 0.25
ANPK	≤ 0.25
YCHQ	≤ 0.25
DHWP	≤ 0.25
WYSI	≤ 0.25
HNRL	≤ 0.25
YWSN	≤ 0.25

Variant	enrichment ratio
WHRM	≤ 0.25
TVME	11.7
VPPP	≤ 0.25
EQGV	≤ 0.25
ASET	≤ 0.25
HAVK	≤ 0.25
VDAL	≤ 0.25
IMVA	≤ 0.25
VRRI	≤ 0.25
WRSR	≤ 0.25
WSGY	≤ 0.25
MDRE	≤ 0.25
LCMN	≤ 0.25
DCKV	≤ 0.25
RAFS	≤ 0.25
SRKL	≤ 0.25
QFVN	≤ 0.25
PVPE	≤ 0.25
NWTW	≤ 0.25
MIVF	≤ 0.25
LCRR	≤ 0.25
KYII	≤ 0.25
SKER	≤ 0.25
RPVT	≤ 0.25

Variant	enrichment ratio
GFRP	≤ 0.25
PTFC	≤ 0.25
VGAM	6.38
WTLQ	≤ 0.25
LRLY	≤ 0.25
VSDW	≤ 0.25
QYYA	≤ 0.25
VHYE	≤ 0.25
NFFM	≤ 0.25
SGLQ	16.6
PRPH	≤ 0.25
WRVY	≤ 0.25
YKIY	≤ 0.25
VNQL	1
HPML	≤ 0.25
YIVY	≤ 0.25
HKFY	≤ 0.25
VTLM	10.8
KVKM	≤ 0.25
RVQF	≤ 0.25
PQDT	≤ 0.25
SFQL	≤ 0.25
GYSH	≤ 0.25
HILM	≤ 0.25

Variant	enrichment ratio
LCAW	≤ 0.25
LKGR	0.425
GDTT	≤ 0.25
YRTL	≤ 0.25
NYDT	≤ 0.25
MRPM	≤ 0.25
GQMF	≤ 0.25
APAF	≤ 0.25
QYAP	≤ 0.25
EEKV	≤ 0.25
TVNN	12.7
NRSD	≤ 0.25
SQHC	≤ 0.25
SKPH	≤ 0.25
ASLI	12.7
DIYG	≤ 0.25
NNGD	≤ 0.25
HSHD	≤ 0.25
RLAA	≤ 0.25
GFCF	≤ 0.25
NAFC	≤ 0.25
FCMW	≤ 0.25
GNNF	≤ 0.25
RPQW	≤ 0.25

Variant	enrichment ratio
VRYV	≤ 0.25
QLRW	≤ 0.25
TWLS	≤ 0.25
KFEA	≤ 0.25
TRIP	≤ 0.25
MSVS	≤ 0.25
RVLT	≤ 0.25
MKTE	≤ 0.25
FGNN	≤ 0.25
KCME	≤ 0.25
NMGS	≤ 0.25
DQYQ	≤ 0.25
YRLK	≤ 0.25
WIPD	≤ 0.25
NDHC	≤ 0.25
SAFW	≤ 0.25
VFND	≤ 0.25
PVWT	≤ 0.25
ATYF	≤ 0.25
ACRQ	≤ 0.25
FHLL	≤ 0.25
RLPR	≤ 0.25
ELMY	≤ 0.25
SWVP	≤ 0.25

Variant	enrichment ratio
TRPT	≤ 0.25
EQCM	≤ 0.25
AWWS	≤ 0.25
RTDF	≤ 0.25
VDMF	≤ 0.25
WEIS	≤ 0.25
GNVV	5.22
SYAI	0.31
FWPE	≤ 0.25
NVEF	≤ 0.25
NRMD	≤ 0.25
FPWH	≤ 0.25
FVNS	≤ 0.25
LLFG	≤ 0.25
WQKK	≤ 0.25
EEMS	≤ 0.25
LEWM	5.44
IVLF	≤ 0.25
